# Data: the supplement of paper PMC8728848
# The other results are listed elsewhere or left out.
# Key:
# Experiment in all cases: glycan array binding signal (z-score within array); higher = stronger binding
# Details in all cases: glycan notation: IUPAC condensed, linker removed
# [1] = target: Gal(b1-4)GlcNAc(b1-3)Gal(b1-4)GlcNAc(b1-3)Gal(b1-4)GlcNAc(b1-3)Gal(b1-4)GlcNAc(b1-3)Gal(b1-4)GlcNAc(b1-2)Man(a1-3)[Gal(b1-4)GlcNAc(b1-3)Gal(b1-4)GlcNAc(b1-3)Gal(b1-4)GlcNAc(b1-3)Gal(b1-4)GlcNAc(b1-3)Gal(b1-4)GlcNAc(b1-2)Man(a1-6)]Man(b1-4)GlcNAc(b1-4)[Fuc(a1-6)]GlcNAc
# In short: (§1)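 Glycan array data came from 3228 arrays in the Consortium for Functional Glycomics database, and only arrays with an available protein sequence were kept. Glycan names were put into IUPAC-condensed notation, and columns mapping to the same glycan were averaged. The binding signal is a within-array Z-score, averaged across arrays of one protein sequence run at different concentrations or buffers and across linkers. A negative Z-score can be read as non-binding.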
# [2] = target: Gal(b1-4)GlcNAc(b1-3)Gal(b1-4)GlcNAc(b1-3)Gal(b1-4)GlcNAc(b1-3)Gal(b1-4)GlcNAc(b1-3)Gal(b1-4)GlcNAc(b1-2)[Gal(b1-4)GlcNAc(b1-3)Gal(b1-4)GlcNAc(b1-3)Gal(b1-4)GlcNAc(b1-3)Gal(b1-4)GlcNAc(b1-3)Gal(b1-4)GlcNAc(b1-6)]Man(a1-6)[Gal(b1-4)GlcNAc(b1-3)Gal(b1-4)GlcNAc(b1-3)Gal(b1-4)GlcNAc(b1-3)Gal(b1-4)GlcNAc(b1-3)Gal(b1-4)GlcNAc(b1-2)Man(a1-3)]Man(b1-4)GlcNAc(b1-4)[Fuc(a1-6)]GlcNAc
# In short: as §1
# [3] = target: Gal(b1-4)GlcNAc(b1-3)Gal(b1-4)GlcNAc(b1-3)Gal(b1-4)GlcNAc(b1-3)Gal(b1-4)GlcNAc(b1-3)Gal(b1-4)GlcNAc(b1-3)Gal(b1-4)GlcNAc(b1-2)Man(a1-3)[Gal(b1-4)GlcNAc(b1-3)Gal(b1-4)GlcNAc(b1-3)Gal(b1-4)GlcNAc(b1-3)Gal(b1-4)GlcNAc(b1-3)Gal(b1-4)GlcNAc(b1-3)Gal(b1-4)GlcNAc(b1-2)Man(a1-6)]Man(b1-4)GlcNAc(b1-4)GlcNAc
# In short: as §1
# [4] = target: Gal(b1-4)GlcNAc(b1-3)Gal(b1-4)GlcNAc(b1-3)GalNAc
# In short: as §1
# [5] = target: Gal(b1-4)GlcNAc(b1-3)Gal(b1-4)GlcNAc(b1-3)[Gal(b1-4)GlcNAc(b1-3)Gal(b1-4)GlcNAc(b1-6)]GalNAc
# In short: as §1
# [6] = target: Gal(b1-4)GlcNAc(b1-3)Gal(b1-4)GlcNAc(b1-6)[Gal(b1-3)]GalNAc
# In short: as §1
# [7] = target: Gal(b1-4)GlcNAc(b1-3)Gal(b1-4)[Fuc(a1-3)GlcNAc(b1-6)]Gal(b1-4)Glc
# In short: as §1
# [8] = target: Gal(b1-4)GlcNAc(b1-3)Gal(b1-4)[Fuc(a1-3)]GlcNAc(b1-3)Gal(b1-4)[Fuc(a1-3)]GlcNAc
# In short: as §1
# [9] = target: Gal(b1-4)GlcNAc(b1-3)GalNAc
# In short: as §1
# [10] = target: Gal(b1-4)GlcNAc(b1-3)[Fuc(a1-3)GlcNAc(b1-6)]Gal(b1-4)Glc
# In short: as §1
# [11] = target: Gal(b1-4)GlcNAc(b1-3)[Gal(b1-4)GlcNAc(b1-6)]Gal(b1-4)GlcNAc
# In short: as §1
# [12] = target: Gal(b1-4)GlcNAc(b1-3)[Gal(b1-4)GlcNAc(b1-6)]GalNAc
# In short: as §1
# [13] = target: Gal(b1-4)GlcNAc(b1-3)[GlcNAc(b1-6)]Gal(b1-4)GlcNAc
# In short: as §1
# [14] = target: Gal(b1-4)GlcNAc(b1-6)Gal(b1-4)GlcNAc
# In short: as §1
# [15] = target: Gal(b1-4)GlcNAc(b1-6)GalNAc
# In short: as §1
# [16] = target: Gal(b1-4)GlcNAc(b1-6)[Gal(b1-3)]GalNAc
# In short: as §1
# [17] = target: Gal(b1-4)GlcNAc(b1-6)[Gal(b1-4)GlcNAc(b1-3)]GalNAc
# In short: as §1
# [18] = target: Gal(b1-4)GlcNAc6P
# In short: as §1
# [19] = target: Gal(b1-6)Gal
# In short: as §1
binder,measurement,setting,value
"Siglec-7-SA-PE-180 (Homo sapiens), Q9Y286 (protein) MLLLLLLPLLWGRERVEGQKSNRKDYSLTMQSSVTVQEGMCVHVRCSFSYPVDSQTDSDPVHGYWFRAGNDISWKAPVATNNPAWAVQEETRDRFHLLGDPQTKNCTLSIRDARMSDAGRYFFRMEKGNIKWNYKYDQLSVNVTALTHRPNILIPGTLESGCFQNLTCSVPWACEQGTPPMISWMGTSVSPLHPSTTRSSVLTLIPQPQHHGTSLTCQVTLPGAGVTTNRTIQLNVSYPPQNLTVTVFQGEGTASTALGNSSSLSVLEGQSLRLVCAVDSNPPARLSWTWRSLTLYPSQPSNPLVLELQVHLGDEGEFTCRAQNSLGSQHVSLNLSLQQEYTGKMRPVSGVLLGAVGGAGATALVFLSFCVIFIVVRSCRKKSARPAADVGDIGMKDANTIRGSASQGNLTESWADDNPRHHGLAAHSSGEEREIQYAPLSFHKGEPQDLSGQEATNNEYSEIKIPK",glycan array binding signal (z-score),[1],-0.311
same,glycan array binding signal (z-score),[2],0.475
same,glycan array binding signal (z-score),[3],0.162
same,glycan array binding signal (z-score),[4],0.259
same,glycan array binding signal (z-score),[5],0.663
same,glycan array binding signal (z-score),[6],0.097
same,glycan array binding signal (z-score),[7],-0.383
same,glycan array binding signal (z-score),[8],0.047
same,glycan array binding signal (z-score),[9],-0.393
same,glycan array binding signal (z-score),[10],-0.136
same,glycan array binding signal (z-score),[11],-0.026
same,glycan array binding signal (z-score),[12],-0.453
same,glycan array binding signal (z-score),[13],-0.413
same,glycan array binding signal (z-score),[14],-0.178
same,glycan array binding signal (z-score),[15],-0.188
same,glycan array binding signal (z-score),[16],-0.175
same,glycan array binding signal (z-score),[17],0.327
same,glycan array binding signal (z-score),[18],0.085
same,glycan array binding signal (z-score),[19],-0.239
